Assay results: patent US11857601 (dated 2024)

B1: Proleukin (Novartis, hIL-2) (ligand)
chain: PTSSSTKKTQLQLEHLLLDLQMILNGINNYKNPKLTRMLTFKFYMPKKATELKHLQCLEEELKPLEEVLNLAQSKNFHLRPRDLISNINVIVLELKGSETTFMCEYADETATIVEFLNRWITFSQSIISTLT
B2: GI101w (CD80-Fc-IL-2) (Fc fusion)
chain: VIHVTKEVKEVATLSCGHNVSVEELAQTRIYWQKEKKMVLTMMSGDMNIWPEYKNRTIFDITNNLSIVILALRPSDEGTYECVVLKYEKDAFKREHLAEVTLSVKADFPTPSISDFEIPTSNIRRIICSTSGGFPEPHLSWLENGEELNAINTTVSQDPETELYAVSSKLDFNMTTNHSFMCLIKYGHLRVNQTFNWNTTKQEHFPDNGSGGGGSGGGGSGGGGSAESKYGPPCPPCPAPEAAGGPSVFLFPPKPKDQLMISRTPEVTCVVVDVSQEDPEVQFNWYVDGVEVHNAKTKPREEQFNSTYRVVSVLTVLHQDWLNGKEYKCKVSNKGLPSSIEKTISKAKGQPREPQVYTLPPSQEEMTKNQVSLTCLVKGFYPSDIAVEWESNGQPENNYKTTPPVLDSDGSFFLYSRLTVDKSRWQEGNVFSCSVLHEALHNHYTQKSLSLSLGGGGGS[about 150 residues left out]
B3: mGI101 (mCD80-Fc-IL-2 variant (2M)) (Fc fusion)
chain: MDAMLRGLCCVLLLCGAVFVSPSHAVDEQLSKSVKDKVLLPCRYNSPHEDESEDRIYWQKHDKVVLSVIAGKLKVWPEYKNRTLYDNTTYSLIILGLVLSDRGTYSCVVQKKERGTYEVKHLALVKLSIKADFSTPNITESGNPSADTKRITCFASGGFPKPRFSWLENGRELPGINTTISQDPESELYTISSQLDFNTTRNHTIKCLIKYGDAHVSEDFTWEKPPEDPPDSGSGGGGSGGGGSGGGGSAESKYGPPCPPCPAPEAAGGPSVFLFPPKPKDQLMISRTPEVTCVVVDVSQEDPEVQFNWYVDGVEVHNAKTKPREEQFNSTYRVVSVLTVLHQDWLNGKEYKCKVSNKGLPSSIEKTISKAKGQPREPQVYTLPPSQEEMTKNQVSLTCLVKGFYPSDIAVEWESNGQPENNYKTTPPVLDSDGSFFLYSRLTVDKSRWQEGNVFSCSVLHEALHNHYTQKSLSLSLGGGGGS[about 150 residues left out]

Legend:
Assay in all cases: BLI
[1] = molecular target: T1, Human IL-2 R alpha protein, His Tag (Acro, ILA-H52H9) (human, UniProt P01589 22-213)
T1 chain: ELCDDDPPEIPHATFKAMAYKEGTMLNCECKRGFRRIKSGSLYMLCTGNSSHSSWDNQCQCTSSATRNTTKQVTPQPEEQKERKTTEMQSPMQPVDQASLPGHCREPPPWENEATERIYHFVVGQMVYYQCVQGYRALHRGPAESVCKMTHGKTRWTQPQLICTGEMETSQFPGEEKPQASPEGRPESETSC

[2] = molecular target: T2, Human IL-2 R beta protein, His-Tag (Acro, CD2-H5221) (human, UniProt P14784 27-239)
T2 chain: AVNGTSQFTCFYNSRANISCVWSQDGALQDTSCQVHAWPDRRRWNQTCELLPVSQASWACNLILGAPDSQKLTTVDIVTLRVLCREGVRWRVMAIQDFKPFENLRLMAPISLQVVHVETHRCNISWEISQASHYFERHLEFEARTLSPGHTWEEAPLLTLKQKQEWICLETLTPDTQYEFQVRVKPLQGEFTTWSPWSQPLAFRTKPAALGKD

[3] = molecular target: T2, Human IL-2 R beta protein, His-Tag …
[4] = molecular target: T1, Human IL-2 R alpha protein, His Tag …
[5] = molecular target: Recombinant Mouse B7-H1/PD-L1 Fc chimera (R&D Systems, Cat: 434-CT-200) (mouse, UniProt Q9EP73 in part)
Sequence of UniProt Q9EP73 (Q9EP73 19-238, change not shown): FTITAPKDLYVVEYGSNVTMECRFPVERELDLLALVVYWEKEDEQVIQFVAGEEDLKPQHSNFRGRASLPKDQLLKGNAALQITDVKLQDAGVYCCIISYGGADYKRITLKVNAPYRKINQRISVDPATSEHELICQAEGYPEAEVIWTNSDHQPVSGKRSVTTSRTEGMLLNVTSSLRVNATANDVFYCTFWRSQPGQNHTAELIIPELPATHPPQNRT

[6] = molecular target: Recombinant Mouse CTLA-4 Fc chimera (R&D Systems, Cat: 434-CT-200) (mouse, UniProt P09793 36-162)

| Binder | Kd [1] [nM] | Kd [2] [nM] | Kd [3] [nM] | Kd [4] [nM] | Kd [5] [nM] | Kd [6] [nM] |
| --- | --- | --- | --- | --- | --- | --- |
| B1 | 1.3 | 91.7 | 91.7 | 1.3 | – | – |
| B2 | 1.6 | 37.4 | 37.4 | 1.6 | – | – |
| B3 | – | – | – | – | 9.91 | 25.8 |

Where two headings read alike, the source gives them in different places.
